Results: the antibiotic and cytotoxicity screens of Wong et al. (2023)
The list shows a part of the results.

Experiments:
HSkMC = human skeletal muscle cells; assay: cytotoxicity call (relative viability < 0.9); conditions: 10 µM
HepG2 = assay: cytotoxicity call (relative viability < 0.9); conditions: 10 µM
S. aureus RN4220 = assay: growth inhibition call (relative growth <= 0.2); conditions: 50 µM

Row | SMILES | cytotoxicity call (HSkMC) | cytotoxicity call (HepG2) | growth inhibition call (S. aureus RN4220)
1 | C[C@H](CO)N1C[C@H](C)[C@@H](CN(C)C(=O)Nc2ccccc2)OCCCC[C@H](C)Oc2ccc(NC(=O)c3ccccc3)cc2C1=O | inactive | inactive | inactive
2 | COc1ccc(S(=O)(=O)N(C)C[C@H]2OCCCC[C@@H](C)Oc3ccc(NC(=O)CCC(F)(F)F)cc3C(=O)N([C@H](C)CO)C[C@H]2C)cc1 | inactive | inactive | inactive
3 | CNC[C@@H]1Oc2ccc(NC(=O)Cn3cnnn3)cc2CC(=O)N([C@H](C)CO)C[C@@H]1C | inactive | inactive | inactive
4 | CO[C@H]1CN(C)C(=O)c2ccc(NS(=O)(=O)c3cn(C)cn3)cc2OC[C@@H](C)N(CC2CC2)C[C@H]1C | inactive | inactive | inactive
5 | C[C@H](CO)N1C[C@H](C)[C@H](CN(C)C(=O)Nc2ccc(C(F)(F)F)cc2)OCCCC[C@H](C)Oc2ccc(NC(=O)Cc3ccccc3)cc2C1=O | inactive | inactive | inactive
6 | Cc1ccc(S(=O)(=O)Nc2ccc3c(c2)C(=O)N([C@H](C)CO)C[C@@H](C)[C@@H](CN(C)Cc2ccc(Oc4ccccc4)cc2)O3)cc1 | active | active | inactive
7 | Cc1noc(C)c1NC(=O)N[C@@H]1CC[C@@H](CC(=O)NCCCN(C)C)O[C@H]1CO | inactive | inactive | inactive
8 | C[C@H](CO)N1C[C@H](C)[C@@H](CN(C)C(=O)[C@H](C)c2ccccc2)OCc2ccccc2-c2c(n(C)c3ccccc23)C1=O | inactive | inactive | inactive
9 | C[C@H]1CN([C@@H](C)CO)C(=O)c2cc(NC(=O)CCN3CCOCC3)ccc2O[C@H]1CN(C)C(=O)NC1CCCCC1 | inactive | inactive | inactive
10 | Cc1noc(C)c1S(=O)(=O)N(C)C[C@@H]1Oc2ccc(NC(=O)CCN3CCOCC3)cc2CC(=O)N([C@@H](C)CO)C[C@@H]1C | inactive | inactive | inactive
11 | C[C@@H](O)[C@H](N)C(=O)O | inactive | active | inactive
12 | C[C@@H]1CN([C@H](C)CO)C(=O)c2cc(C#C[C@@H](C)O)cnc2O[C@@H]1CN(C)C(=O)Nc1ccc(C(F)(F)F)cc1 | inactive | inactive | inactive
13 | Cc1cc(O)c(C(=O)/C=C/N(C)C)c(=O)o1 | inactive | inactive | inactive
14 | O=C(O)[C@H]1NC(=O)[C@@H]1Cc1ccccc1 | inactive | inactive | inactive
15 | c1cc2c(cc1-c1nn[nH]n1)OCO2 | inactive | inactive | inactive
16 | COc1ccc(OCCN2CCC(C(=O)N[C@@H](c3ccc(F)cc3)c3ccc4ccccc4n3)CC2)cc1 | inactive | active | inactive
17 | C[C@H]1CN([C@@H](C)CO)C(=O)Cc2cc(NC(=O)Cn3cnnn3)ccc2O[C@H]1CN(C)S(=O)(=O)c1cn(C)cn1 | inactive | inactive | inactive
18 | C[C@H]1CN([C@@H](C)CO)C(=O)Cc2cc(NS(C)(=O)=O)ccc2O[C@H]1CN(C)S(=O)(=O)c1ccccc1 | inactive | inactive | inactive
19 | CC(C)NC(=O)Nc1cccc2c1O[C@H](CN(C)S(=O)(=O)c1cn(C)cn1)[C@@H](C)CN([C@H](C)CO)C2=O | inactive | inactive | inactive

Row | SMILES | cytotoxicity call (HSkMC) | cytotoxicity call (HepG2) | growth inhibition call (S. aureus RN4220)
20 | Cc1noc(C)c1S(=O)(=O)Nc1cccc2c1O[C@@H](CN(C)Cc1ccc(C(=O)O)cc1)[C@@H](C)CN([C@@H](C)CO)C2=O | inactive | inactive | inactive
21 | C[C@@H]1CCCCO[C@@H](CN(C)S(=O)(=O)c2cn(C)cn2)[C@H](C)CN([C@H](C)CO)C(=O)c2cc(NS(=O)(=O)c3ccc(F)cc3)ccc2O1 | inactive | inactive | inactive
22 | COc1ccc(S(=O)(=O)Nc2ccc3c(c2)CC(=O)N([C@@H](C)CO)C[C@@H](C)[C@H](CN(C)C)O3)cc1 | inactive | inactive | inactive
23 | C[C@H]1CN([C@@H](C)CO)C(=O)c2cccc(N(C)C)c2O[C@@H]1CN(C)S(=O)(=O)c1ccc(Cl)cc1 | inactive | inactive | inactive
24 | Cc1noc(C)c1NC(=O)N(C)C[C@H]1OCCCC[C@H](C)Oc2ccc(NS(=O)(=O)c3ccc(F)cc3)cc2C(=O)N([C@@H](C)CO)C[C@H]1C | inactive | inactive | inactive
25 | COCC#Cc1ccc2c(c1)O[C@H](CN(C)C(=O)c1ccccc1)[C@H](C)CN([C@@H](C)CO)S2(=O)=O | inactive | inactive | inactive
26 | C[C@@H]1CN([C@H](C)CO)C(=O)c2cc(NC(=O)c3ccncc3)ccc2O[C@@H]1CN(C)Cc1ccncc1 | inactive | inactive | inactive
27 | C[C@H](CO)N1C[C@H](C)[C@H](CN(C)S(=O)(=O)c2ccccc2)Oc2ccc(NS(C)(=O)=O)cc2C1=O | inactive | inactive | inactive
28 | CCc1nc2c(OCC(=O)c3ccc(Cl)cc3Cl)cccn2c1N(C)C(=O)COc1ccccc1 | inactive | active | inactive
29 | CN1CC(=O)N(c2cnn(C)c2)C[C@]12CCN(C(=O)c1cnccn1)C2 | inactive | inactive | inactive
30 | C[C@H](CO)N1C[C@H](C)[C@@H](CN(C)Cc2ccc(Cl)c(Cl)c2)Oc2ccc(NC(=O)Cc3ccccc3)cc2C1=O | inactive | inactive | inactive
31 | C[C@@H]1CN([C@H](C)CO)C(=O)c2cccc(NC(=O)c3ccc(-c4nccs4)cc3)c2O[C@H]1CN(C)Cc1ccc(C(=O)Nc2ccccc2N)cc1 | inactive | inactive | inactive
32 | C[C@H](CO)N1C[C@H](C)[C@@H](CN(C)S(=O)(=O)c2ccc(F)cc2)OCCCC[C@H](C)Oc2ccc(NC(=O)C3CCCCC3)cc2C1=O | inactive | inactive | inactive
33 | Cc1nc2n(c(=O)c1C)[C@H](CC(=O)O)CS2 | inactive | inactive | inactive
34 | COc1ccc(NC(=O)N(C)C[C@@H]2OCCCC[C@H](C)Oc3ccc(NC(=O)C4CCCCC4)cc3C(=O)N([C@@H](C)CO)C[C@H]2C)cc1 | inactive | inactive | inactive
35 | NCCCC[C@@H]1NC(=O)[C@H]2C[C@@H](C(=O)O)[C@@H](c3cccc(OCCO)c3)N2C1=O | inactive | inactive | inactive
36 | COCC#Cc1cnc2c(c1)C(=O)N([C@@H](C)CO)C[C@@H](C)[C@H](CN(C)S(=O)(=O)c1cccc(OC)c1)O2 | inactive | inactive | inactive
37 | C[C@@H]1CN([C@H](C)CO)C(=O)c2cccc(NS(=O)(=O)c3cccs3)c2O[C@@H]1CN(C)S(=O)(=O)c1ccccc1 | inactive | inactive | inactive
38 | COc1ccc(NC(=O)Nc2ccc3c(c2)C(=O)N([C@H](C)CO)C[C@@H](C)[C@H](CN(C)S(=O)(=O)c2cn(C)cn2)O3)cc1 | inactive | inactive | inactive
